# Reference: the supplement of paper PMC10037445
# The full ranking holds about 2,900 compounds; the median of “IRF Lucia reporter activity, fold change vs agonist alone” is about 0.9, and the highest 2% start at about 2.8. This is one part of the list.
# What was measured:
# RAW-Dual [1] = experiment: IRF Lucia reporter activity, fold change vs agonist alone; higher = enhanced IRF activity; settings: agonist: MPLA (TLR4) […]
# How it was run: (§1)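 RAW-Dual macrophages were seeded in DMEM at 50,000 cells/well in 384-well plates, given 50 nL of library stock by pin tool, and given a PRR agonist 1 h later. Plates were held at 37 °C, 5% CO2 for 20 hours, after which supernatant was read for IRF by QuantiLuc luminescence and for NF-κB by QuantiBlue absorbance at 620 nm. Reporter activity is expressed as fold change over wells that received agonist alone. A well was called cytotoxic when IncuCyte confluency fell below 70% of agonist controls in both mask sets.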
# RAW-Dual [2] = experiment: IRF Lucia reporter activity, fold change vs agonist alone; cytotoxicity flag (confluency mask): cytotoxic (confluency <70% of control); higher = enhanced IRF activity
# How it was run: as §1
# RAW-Dual [3] = experiment: IRF Lucia reporter activity, fold change vs agonist alone; cytotoxicity flag (confluency mask): not cytotoxic; higher = enhanced IRF activity
# How it was run: as §1
# [4] = library stock concentration (final ~1000-fold dilution): 10 mM, cytotoxicity flag (confluency mask): not cytotoxic
# [5] = agonist: 3'3'-cGAMP (STING) 10 ug/mL
# [6] = library stock concentration (final ~1000-fold dilution): 10 mM, cytotoxicity flag (confluency mask): cytotoxic (confluency <70% of control)
structure (smiles),measurement,setting,value
CC(=O)NC(CC(C)C)C(=O)NC(CC(C)C)C(=O)NC(C=O)CCCNC(=N)N (stereo not drawn),IRF Lucia reporter activity,RAW-Dual [1]; [4],1.12
Cc1cc(OCc2nnc(SC3CCCC3)n2-c2cccnc2)ccc1-c1ccc(S(C)(=O)=O)cc1 (library stock concentration (final ~1000-fold dilution): 10 mM),IRF Lucia reporter activity,RAW-Dual [2]; [5],0.0369
same,IRF Lucia reporter activity,RAW-Dual [2]; agonist: LPS (TLR4) 0.1 ug/mL,0.697
Cc1cc(OCc2nnc(SC3CCCC3)n2-c2cccnc2)ccc1-c1ccc(S(C)(=O)=O)cc1,IRF Lucia reporter activity,RAW-Dual [1]; [6],0.905
CNC(=O)c1ccc(C)c(-n2c(C)cc(OCc3ccc(F)cc3F)c(Br)c2=O)c1,IRF Lucia reporter activity,RAW-Dual [1]; [4],1.4
CNC(=O)c1ccc(C)c(-n2c(C)cc(OCc3ccc(F)cc3F)c(Br)c2=O)c1 (library stock concentration (final ~1000-fold dilution): 10 mM),IRF Lucia reporter activity,RAW-Dual [3]; [5],1.28
same,IRF Lucia reporter activity,RAW-Dual [3]; agonist: LPS (TLR4) 0.1 ug/mL,1.1
CC(C)S(=O)(=O)c1ccc2nccc(Nc3ccc4scnc4c3)c2c1 (library stock concentration (final ~1000-fold dilution): 10 mM),IRF Lucia reporter activity,RAW-Dual [3]; [5],0.112
same,IRF Lucia reporter activity,RAW-Dual [3]; agonist: LPS (TLR4) 0.1 ug/mL,0.298
COc1cccc2c1C(=O)c1c(O)c3c(c(O)c1C2=O)CC(O)(C(C)=O)CC3OC1CC(N)C(O)C(C)O1.Cl (stereo not drawn) (library stock concentration (final ~1000-fold dilution): 10 mM),IRF Lucia reporter activity,RAW-Dual [2]; [5],0.0103
same,IRF Lucia reporter activity,RAW-Dual [2]; agonist: LPS (TLR4) 0.1 ug/mL,0.0116
COc1cccc2c1C(=O)c1c(O)c3c(c(O)c1C2=O)CC(O)(C(C)=O)CC3OC1CC(N)C(O)C(C)O1.Cl (stereo not drawn),IRF Lucia reporter activity,RAW-Dual [1]; [6],0.0202
CC(C)(F)CC(NC(c1ccc(-c2ccc(S(C)(=O)=O)cc2)cc1)C(F)(F)F)C(=O)NC1(C#N)CC1 (stereo not drawn),IRF Lucia reporter activity,RAW-Dual [1]; [4],1.16
CC(C)(F)CC(NC(c1ccc(-c2ccc(S(C)(=O)=O)cc2)cc1)C(F)(F)F)C(=O)NC1(C#N)CC1 (stereo not drawn) (library stock concentration (final ~1000-fold dilution): 10 mM),IRF Lucia reporter activity,RAW-Dual [3]; [5],1.04
same,IRF Lucia reporter activity,RAW-Dual [3]; agonist: LPS (TLR4) 0.1 ug/mL,1.09
O=c1cc(-c2ccccc2)oc2c1ccc1ccccc12,IRF Lucia reporter activity,RAW-Dual [1]; [4],0.951
O=c1cc(-c2ccccc2)oc2c1ccc1ccccc12 (library stock concentration (final ~1000-fold dilution): 10 mM),IRF Lucia reporter activity,RAW-Dual [3]; [5],0.809
same,IRF Lucia reporter activity,RAW-Dual [3]; agonist: LPS (TLR4) 0.1 ug/mL,0.537
CCN(CC)CCCCNc1ncc2cc(-c3cc(OC)cc(OC)c3)c(NC(=O)NC(C)(C)C)nc2n1 (library stock concentration (final ~1000-fold dilution): 10 mM),IRF Lucia reporter activity,RAW-Dual [2]; [5],0.883
same,IRF Lucia reporter activity,RAW-Dual [2]; agonist: LPS (TLR4) 0.1 ug/mL,0.0381
CCN(CC)CCCCNc1ncc2cc(-c3cc(OC)cc(OC)c3)c(NC(=O)NC(C)(C)C)nc2n1,IRF Lucia reporter activity,RAW-Dual [1]; [6],1.55
Cc1ccc(Oc2ccnc3cc(-c4cnn(C5CCNCC5)c4)ccc23)cc1 (library stock concentration (final ~1000-fold dilution): 10 mM),IRF Lucia reporter activity,RAW-Dual [2]; [5],0.0554
same,IRF Lucia reporter activity,RAW-Dual [2]; agonist: LPS (TLR4) 0.1 ug/mL,0.134
C=CS(=O)(=O)NC1CCN(C(=O)CNc2cc(I)c(Cl)cc2OC)CC1,IRF Lucia reporter activity,RAW-Dual [1]; [4],0.0338
C=CS(=O)(=O)NC1CCN(C(=O)CNc2cc(I)c(Cl)cc2OC)CC1 (library stock concentration (final ~1000-fold dilution): 10 mM),IRF Lucia reporter activity,RAW-Dual [3]; [5],0.0197
same,IRF Lucia reporter activity,RAW-Dual [3]; agonist: LPS (TLR4) 0.1 ug/mL,0.0467
COc1cc([C@H]2OC[C@H]3[C@@H]2CO[C@H]3c2ccc(OC)c(OC)c2)ccc1O (library stock concentration (final ~1000-fold dilution): 10 mM),IRF Lucia reporter activity,RAW-Dual [3]; [5],0.946
same,IRF Lucia reporter activity,RAW-Dual [3]; agonist: LPS (TLR4) 0.1 ug/mL,1.03
O=C(CCCS)NC1CCN(C(=O)COc2ccc(Cl)cc2Cl)CC1,IRF Lucia reporter activity,RAW-Dual [1]; [4],0.86
O=C(CCCS)NC1CCN(C(=O)COc2ccc(Cl)cc2Cl)CC1 (library stock concentration (final ~1000-fold dilution): 10 mM),IRF Lucia reporter activity,RAW-Dual [3]; [5],0.63
same,IRF Lucia reporter activity,RAW-Dual [3]; agonist: LPS (TLR4) 0.1 ug/mL,1.02
CCOC(=O)C(CCc1ccccc1)NC(C)C(=O)N1C(C(=O)O)CC2CCCCC21 (stereo not drawn),IRF Lucia reporter activity,RAW-Dual [1]; [4],1.16
CCOC(=O)C(CCc1ccccc1)NC(C)C(=O)N1C(C(=O)O)CC2CCCCC21 (stereo not drawn) (library stock concentration (final ~1000-fold dilution): 10 mM),IRF Lucia reporter activity,RAW-Dual [3]; [5],1.01
same,IRF Lucia reporter activity,RAW-Dual [3]; agonist: LPS (TLR4) 0.1 ug/mL,0.936
CC(C)CC(CC(=O)NO)C(=O)NC(Cc1ccc2ccccc2c1)C(=O)NC(C)C(=O)NCCN (stereo not drawn),IRF Lucia reporter activity,RAW-Dual [1]; [4],1.03
CC(C)CC(CC(=O)NO)C(=O)NC(Cc1ccc2ccccc2c1)C(=O)NC(C)C(=O)NCCN (stereo not drawn) (library stock concentration (final ~1000-fold dilution): 10 mM),IRF Lucia reporter activity,RAW-Dual [3]; [5],0.9
same,IRF Lucia reporter activity,RAW-Dual [3]; agonist: LPS (TLR4) 0.1 ug/mL,0.975
O=P(O)(O)OC(CO)CO,IRF Lucia reporter activity,"RAW-Dual [1]; library stock concentration (final ~1000-fold dilution): 10 mM water, cytotoxicity flag (confluency mask): not cytotoxic",1.42
O=P(O)(O)OC(CO)CO (library stock concentration (final ~1000-fold dilution): 10 mM water),IRF Lucia reporter activity,RAW-Dual [3]; [5],1.35
same,IRF Lucia reporter activity,RAW-Dual [3]; agonist: LPS (TLR4) 0.1 ug/mL,0.743
Cc1ccc(O)c(C(CCN(C(C)C)C(C)C)c2ccccc2)c1.O=C(O)C(O)C(O)C(=O)O (stereo not drawn),IRF Lucia reporter activity,RAW-Dual [1]; [4],1.05
Cc1ccc(O)c(C(CCN(C(C)C)C(C)C)c2ccccc2)c1.O=C(O)C(O)C(O)C(=O)O (stereo not drawn) (library stock concentration (final ~1000-fold dilution): 10 mM),IRF Lucia reporter activity,RAW-Dual [3]; [5],0.408
same,IRF Lucia reporter activity,RAW-Dual [3]; agonist: LPS (TLR4) 0.1 ug/mL,1.23
